Test results published in PMC10083269, “Basic characterization of antibodies targeting receptors of the tumor necrosis factor receptor superfamily” (Frontiers in Immunology, 2023).

B1: CD40 on HT1080-CD40 cells (receptor)
chain: not shown
notes: CD40 expressed on HT1080-CD40 transfectants; also called CD40-expressing cells
B2: 41BB on HT1080-41BB cells (receptor)
chain: not shown
notes: 41BB expressed on HT1080-41BB transfectants; also called 41BB-expressing cells

Key:
[1] = target: T1, 3xVHH(V12t)-Fc(DANA); experiment: cellular competition binding with a GpL-TNFL fusion protein; HT1080 transfectants (2 x 10^4 per well) incubated with an excess of the GpL-free antibody (10 µg/ml) or VHH Fc fusion protein for 30 minutes, then GpL-TNFL added at a concentration close to its KD (typically 1 - 100 ng/ml); remaining specific binding against TNFR negative HT1080 cells; details: partners not purified
T1 construct: also called hexavalent Fc fusion protein variant of the CD40-specific nanobody V12t; source: HEK293T, transient transfection (PEI); not shown: Fc (human IgG1, DANA-mutated), C-terminal, kept
T1 sequence (P25942 21-277): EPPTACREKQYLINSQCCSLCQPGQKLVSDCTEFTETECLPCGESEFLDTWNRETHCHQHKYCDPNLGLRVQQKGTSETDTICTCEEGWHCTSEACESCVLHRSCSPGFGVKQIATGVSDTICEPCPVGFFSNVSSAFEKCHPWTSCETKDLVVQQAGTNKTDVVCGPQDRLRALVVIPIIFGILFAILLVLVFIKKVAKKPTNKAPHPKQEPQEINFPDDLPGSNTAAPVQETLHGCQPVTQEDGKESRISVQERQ

[2] = target: T2, 3xVHH(4H04)-Fc(DANA); experiment: as above; details: partners not purified
T2 construct: also called hexavalent Fc fusion protein variant of the 41BB-specific nanobody 4H04; source: HEK293T, transient transfection (PEI); not shown: Fc (human IgG1, DANA-mutated), C-terminal, kept
T2 sequence (Q07011 24-255): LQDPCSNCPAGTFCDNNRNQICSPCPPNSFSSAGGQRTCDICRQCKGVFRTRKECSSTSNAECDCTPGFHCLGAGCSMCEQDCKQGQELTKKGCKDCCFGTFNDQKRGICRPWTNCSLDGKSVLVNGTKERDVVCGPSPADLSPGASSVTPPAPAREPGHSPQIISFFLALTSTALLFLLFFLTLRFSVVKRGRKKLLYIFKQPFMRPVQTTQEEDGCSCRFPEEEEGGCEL

| Binder | binding result [1] | binding result [2] |
| --- | --- | --- |
| B1 | binds | – |
| B2 | – | binds |
